Reference: the supplement of paper PMC4604168 (melanoma cell lines)
This is one part of the list. Many values rest on one well or one pass, so single values are uncertain.

Assays:
Assay in all cases: cell count relative to DMSO control; melanoma cells; higher = more viable cells
Conditions in all cases: library dose: low library concentration; 72 h; first compound 0.4 µM
[1] = system: COLO792
[2] = system: COLO800
[3] = system: COLO829
[4] = system: G361
[5] = system: IPC-298
[6] = system: IST-MEL1
[7] = system: LB2518-MEL
[8] = system: LOXIMVI
[9] = system: MEL-HO
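Further: cell number obtained by counting DAPI-stained nuclei in high-throughput microscope images with image analysis software, screen run in 1,536-well plates.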

Structure (SMILES)	cell count [1]	cell count [2]	cell count [3]	cell count [4]	cell count [5]	cell count [6]	cell count [7]	cell count [8]	cell count [9]
Cn1sc(=O)n(Cc2ccccc2)c1=O + CN(C)S(=O)(=O)c1ccc2c(c1)/C(=C/c1cc3c([nH]1)CCCC3)C(=O)N2 [SU6656] (partner dose 0.4 µM)	82.3%	93.4%	103%	91%	97.3%	103%	101%	142%	104%
Cn1sc(=O)n(Cc2ccccc2)c1=O + O=C(CCCCCCC(=O)Nc1ccccc1)NO [vorinostat] (partner dose 0.08 µM)	102%	69.2%	106%	95.1%	95.6%	110%	102%	82.6%	97.7%
Cn1sc(=O)n(Cc2ccccc2)c1=O + Cc1cc(N2CCOCC2)cc2[nH]c(-c3c(NC[C@@H](O)c4cccc(Cl)c4)cc[nH]c3=O)nc12 [BMS536924] (partner dose 0.2 µM)	76.5%	44.4%	93.3%	74.7%	96.7%	102%	94.4%	120%	97.2%
C[C@@H](N)c1ccc(C(=O)Nc2ccnc3[nH]ccc23)cc1 + COc1ccc2c(c1)CCC1C2CCC2(C)C(NCCCCCCN3C(=O)C=CC3=O)CCC12 [U73122] (partner dose 0.4 µM)	83.2%	108%	61.5%	87.2%	109%	99.4%	116%	59.7%	84.8%
C[C@@H](N)c1ccc(C(=O)Nc2ccnc3[nH]ccc23)cc1 + OCCn1cc(-c2cnc3nnn(Cc4ccc5ncccc5c4)c3n2)cn1 [PF04217903] (partner dose 1 µM)	85.2%	108%	100%	104%	105%	93.7%	111%	84.4%	76.3%
